# Experimental data: PubChem BioAssay AID1476 (National Center for Advancing Translational Sciences (NCATS), 2009)
# In all, about 200,000 compounds went through this assay and about 4,500 (2.2%) were called active. The inconclusive results got no clear call from the source; some entries with a clear call stand among them for comparison. The call rests on the fitted dose curve; in most records, active means well fitted inhibition curve with a large enough effect; inconclusive means small, poorly fitted or top-dose-only effect, or effect the other way; inactive means flat fitted curve, though single readings scatter. A potency beside an inconclusive call is a rough fit, not a confirmed value.
# Biological target: Cruzipain (Trypanosoma cruzi) (UniProt P25779)
# Chain of UniProt P25779 (P25779 whole entry, looked up): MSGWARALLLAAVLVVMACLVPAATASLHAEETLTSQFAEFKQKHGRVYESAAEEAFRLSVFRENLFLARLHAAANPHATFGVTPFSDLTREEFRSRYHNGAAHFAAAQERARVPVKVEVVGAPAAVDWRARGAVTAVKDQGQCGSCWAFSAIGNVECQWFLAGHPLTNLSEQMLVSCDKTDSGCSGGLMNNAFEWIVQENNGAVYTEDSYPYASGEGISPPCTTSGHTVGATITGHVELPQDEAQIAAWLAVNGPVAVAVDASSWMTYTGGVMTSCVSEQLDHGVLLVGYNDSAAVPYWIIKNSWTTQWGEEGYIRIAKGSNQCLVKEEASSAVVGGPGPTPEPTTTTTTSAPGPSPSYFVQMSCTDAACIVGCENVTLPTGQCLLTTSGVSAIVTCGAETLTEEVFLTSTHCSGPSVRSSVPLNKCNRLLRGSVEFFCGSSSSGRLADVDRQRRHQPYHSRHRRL
# Test: qHTS Assay for Promiscuous and Specific Inhibitors of Cruzain (without detergent); further: nearly all actives have a fitted effect of over 40% in size;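 on max response, negative = inhibition: plate controls were enzyme without inhibitor for no effect and buffer without enzyme for full effect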
# Conditions: purified cruzain, Z-FR-AMC fluorescence, no detergent
# Method in brief: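 Detergent-free condition (0.00005% Triton X-100) in acetate buffer pH 5.5 with DTT. 1.5 nM enzyme and compound were pre-mixed 15 min, then 2 uM Z-FR-AMC substrate added; reaction progress from fluorescence change between first and third reads (60 s).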
# Potency means the concentration at half of the fitted maximal effect; tags describe the fitted curve by direction and shape.
SMILES,Potency,"max response, negative = inhibition"
Clc1ccc2nc(-c3ccc(Br)s3)cn2c1,"inconclusive: 39.8 µM [inhibitor, single point]",
CCCOC(=O)c1ccc(NC(=O)c2cc(OC)c(OC)c(OC)c2Br)cc1,"inconclusive: 39.8 µM [activator, single point]",
CCCCn1c(N)c(-c2nc3ccccc3o2)c2c([N+](=O)[O-])nn(C)c(=O)c21,"inconclusive: 31.6 µM [inhibitor, single point]",
COc1ccc(C(=O)N2CCCC(c3nc(-c4cc(OC)c(OC)c(OC)c4)no3)C2)cc1 (stereo not given),"inconclusive: 31.6 µM [activator, single point]",
Cc1ccc(NC(=O)N/C=C/c2ccc(Cl)cc2)cc1,"inconclusive: 3.98 µM [inhibitor, single point]",
Cc1cc(-c2ccco2)c(C#N)c2nc3ccccc3n12,,inactive: -21.1%
Cc1oc2c(C)c(O)ccc2c(=O)c1-c1ccc2ccccc2n1,"inconclusive: 39.8 µM [inhibitor, single point]",
CCn1c2ccccc2c2cc(NC(=O)c3cc(OC)c(OC)c(OC)c3)ccc21,"inconclusive: 39.8 µM [activator, single point]",
CCc1nnc(NC(=O)CSc2nc3c([nH]c4ccccc43)c(=O)n2-c2cc(C)cc(C)c2)s1,,inactive: -7.91%
Cc1nn(-c2ccccc2)c(/N=C/c2ccc(O)cc2)c1-c1ccccc1,,inactive: 5.25%
O=C1CC(c2nc3ccccc3n2CCCCOc2ccccc2)CN1c1ccccc1Cl (stereo not given),"inconclusive: 39.8 µM [activator, single point]",
CCC1Oc2ccc(C)cc2N(CC(=O)NCc2cc(OC)ccc2OC)C1=O (stereo not given),"inconclusive: 25.1 µM [inhibitor, single point]",
O=C(NCCc1ccccc1)c1ccc2c(c1)N(Cc1ccccc1Cl)C(=O)c1ccccc1S2,"inconclusive: 31.6 µM [inhibitor, single point]",
O=C(CC1Sc2ncnn2C1=O)Nc1ccc(Br)cc1 (stereo not given),"inconclusive: 3.98 µM [inhibitor, full curve, poor fit]",
Cn1nc(C(=O)Nc2cccc(C(F)(F)F)c2)c2ccccc2c1=O,"inconclusive: 39.8 µM [activator, single point]",
Nc1nc(NCc2ccccc2)nc(NCc2ccccc2)c1[N+](=O)[O-],"inconclusive: 31.6 µM [inhibitor, single point]",
CCOc1ccc(-n2cc(C(=O)NC(C)C)c3cc(OC)c(OC)cc3c2=O)cc1,"inconclusive: 39.8 µM [activator, single point]",
CCCn1c(SCC(=O)c2ccc(OC)c(OC)c2)nc2c1c(=O)n(C)c(=O)n2C,"inconclusive: 12.6 µM [activator, partial curve]",
CCOC(=O)c1c(NC(=O)CS(=O)(=O)c2cn(CC)c3ccccc23)sc2c1CCCC2,"inconclusive: 39.8 µM [inhibitor, single point]",
COc1ccc(NC(=O)C2=CC(c3cccs3)=NS(=O)(=O)N2C)cc1,"inconclusive: 31.6 µM [inhibitor, single point]",

SMILES,Potency,"max response, negative = inhibition"
C(=N/Nc1nnc2c(n1)[nH]c1ccccc12)/c1cccnc1,,inactive: -1.13%
COc1ccc(CC(=O)Nc2nc3c(s2)CC(C(C)(C)C)CC3)cc1 (stereo not given),"inconclusive: 3.16 µM [activator, partial curve, poor fit]",
CC12CCC(C(=O)NCc3ccccc3Cl)(C(Br)C1=O)C2(C)C (stereo not given),"inconclusive: 39.8 µM [inhibitor, single point]",
O=C(/C=C/c1ccc(Cl)cc1Cl)c1nc2ccccc2[nH]1,active: 7.94 µM,
O=C(NNC(=O)c1cccs1)c1ccc(Br)o1,,inactive: -15.1%
Cc1cccc(NC(=O)Cn2c(=O)n(-c3ccccc3Cl)c(=O)c3c(C)c(C(=O)N(C)C)sc32)c1,"inconclusive: 39.8 µM [activator, single point]",
O=[N+]([O-])c1cccc(/C=N\N=C2c3ccccc3-c3ccccc32)c1O,"inconclusive: 39.8 µM [inhibitor, single point]",
CC(=O)Nc1c(C)nn(-c2ccccc2)c1N1CCC(C(=O)NCc2ccc(Cl)cc2)CC1,"inconclusive: 39.8 µM [activator, single point]",
Cc1cc(C)cc(N2CC(c3nc(-c4ccccc4C)no3)CC2=O)c1 (stereo not given),,inactive: 13.2%
Cc1cccc(C(=O)Nc2ccc(-c3nc4ccccc4s3)cc2Cl)c1,"inconclusive: 39.8 µM [inhibitor, single point]",
O=C(NCc1ccc(N2CCCC2=O)cc1)c1cn(Cc2ccccc2)nn1,,inactive: -7.51%
CCc1c(C)c2cc(Cl)c(O)c(CN3CCCCC3)c2oc1=O,"inconclusive: 39.8 µM [inhibitor, single point]",
O=C(Nc1cc(F)ccc1F)C1CCN(c2nc3ccccc3n3cccc23)CC1,"inconclusive: 39.8 µM [inhibitor, single point]",
CCN(CC)S(=O)(=O)c1ccc(OC)c(NC(=O)C(C)Oc2ccc3c(C)cc(=O)oc3c2)c1 (stereo not given),"inconclusive: 39.8 µM [activator, single point]",
COCCN1C(=O)c2oc3c(C)cc(C)cc3c(=O)c2C1c1cccc(O)c1 (stereo not given),"inconclusive: 39.8 µM [activator, single point]",
CCn1c(=O)cc(SCC(=O)Nc2ccc3c(c2)OCCO3)c2ccccc21,"inconclusive: 39.8 µM [activator, single point]",
Cc1ccc(NC(=O)/C=C/c2ccc([N+](=O)[O-])s2)cc1,active: 31.6 µM,
CN(CC(=O)O/N=C(\N)c1ccc([N+](=O)[O-])cc1)S(=O)(=O)c1ccc2ccccc2c1,"inconclusive: 25.1 µM [inhibitor, single point]",
C=CCn1c(=NC(=O)C2CCCCC2)sc2cc(NC(C)=O)ccc21,"inconclusive: 6.31 µM [activator, full curve]",
CCOCCCn1c(=NC(C)=O)c(C(=O)OCC)cc2c(=O)n3ccccc3nc21,"inconclusive: 39.8 µM [inhibitor, single point]",
